# PubChem BioAssay AID463173 (ICCB-Longwood Screening Facility, Harvard Medical School, 2010)
# Screen size: about 52,000 compounds; about 4,300 (8.3%) were called active. Rule as the data show it: active = survival mostly below about 52% (no sharp cut-off); inactive = mostly above about 56%. Some of the results follow.
# System: DeltatarO mutant
# Test: S. aureus survival, RN4220 and DeltatarO strains – OD600, teichoic acid synthesis inhibitors, primary screen (AID 463173)
# Details: S. aureus RN4220 wild type/DeltatarO growth, OD600, 18 h, active compounds read low, screened at 18.75 µg/mL (by protocol)
row,Compound,survival
1,Cc1cccc(NC(=O)CCc2c(C)nc3c(c(C)nn3C(C)(C)C)c2C)c1C,inactive: 56%
2,O=C1COc2ccc(-c3cc(-c4ccccc4)c4c(n3)-c3cc(Cl)ccc3OC4)cc2N1,inactive: 80%
3,CCN(C(=O)c1cn(CC)c(=O)c2cc(OC)c(OC)cc12)c1ccc(C)c(C)c1,inactive: 169%
4,Cc1ccc(N2CCN(S(=O)(=O)c3ccc4[nH]c5c(c4c3)CCCCC5)CC2)c(C)c1,inactive: 102%
5,COc1ccc(CNC(=O)c2cnc(N3CCOCC3)c3ccccc23)cc1,inactive: 70%
6,Fc1ccc(-c2cn3cc(Cc4ccccc4)sc3n2)cc1,inactive: 81%
7,COc1ccc(NC(=O)CSc2nc(-c3ccco3)cc(C(F)(F)F)n2)cc1Cl,active: 38%
8,CCCN(CCC)C(=O)Cn1c(=O)n(-c2ccc(Cl)cc2)c(=O)c2c3c(sc21)CCCC3,inactive: 103%
9,CCc1ccc2oc(-c3cc(NC(=O)c4cc([N+](=O)[O-])ccc4N4CCOCC4)ccc3Cl)nc2c1,inactive: 54%
10,Cc1ccc(Cl)cc1N1CCN(C(=O)c2cc3c(-c4ccccc4F)nn(C)c3s2)CC1,inactive: 66%
11,COc1ccc(-n2ncc(C(=O)N3CCOCC3)c2C2CCN(C(=O)OC(C)(C)C)CC2)cc1,inactive: 65%
12,CCCCS(=O)(=O)c1nc(-c2ccc(Br)cc2)cc(-c2ccccc2)c1C#N,inactive: 119%
13,Cc1cccc(N2CCN(C(c3ccccc3)c3nnc(-c4ccccc4Cl)o3)CC2)c1C (centres undefined),inactive: 51%
14,Cn1nnc2c(N3CCN(c4cccc(C(F)(F)F)c4)CC3)ncnc21,inactive: 92%
15,Fc1ccccc1N1CCN(c2ncc3c(n2)CCN(Cc2cc(Br)cs2)C3)CC1,inactive: 60%
16,COc1ccc(OC)c(CNC(=O)CN2CC(C)Sc3ccccc32)c1 (centres undefined),inactive: 88%
17,CC(=O)N1N=C(N)SC1c1ccccc1 (centres undefined),inactive: 65%
18,O=C(Nc1cccc(F)c1F)C1CCN(c2ncccn2)CC1,inactive: 62%
19,COc1cccc(-n2nnc(-c3nc(-c4ccccc4F)no3)c2C)c1,inactive: 84%
20,O=C(Nc1ccc(F)cc1)N1CCN(C(=O)c2nsc3ccccc23)CC1,inactive: 55%
21,COC(=O)c1cc2occc2n1CC(=O)Nc1ccc(C(C)C)cc1,inactive: 93%
22,CCSc1nn(CC(=O)Nc2ccc(C(=O)OC)cc2)c(N)c1S(=O)(=O)c1ccc(C)cc1,active: 37%
23,COc1ccc(-c2nc3c(c(SCC(=O)N4CCCCC4)n2)Cc2c(CO)cnc(C)c2O3)cc1,inactive: 96%
24,COC(=O)c1cc(NC(=O)c2ccc3c(c2)NC(=O)c2ccccc2S3)cc(C(=O)OC)c1,inactive: 54%
